Test results as given in PubChem BioAssay AID686979 (National Center for Advancing Translational Sciences (NCATS), 2013).
“And” between values parts separate entries of the source, which are not always exact repeats. Equal entries are not always repeated. In all, about 420,000 compounds went through this assay and about 50,000 (12%) were called active. Inconclusive results, whose numbers are uncertain, are shown with a selection of clear calls. The call rests on the fitted dose curve; in most records, active means well fitted inhibition curve with a large enough effect; inconclusive means small, poorly fitted or top-dose-only effect; inactive means flat fitted curve, though single readings scatter. A potency beside an inconclusive call is a rough fit, not a confirmed value.

Test: qHTS for Inhibitors of human tyrosyl-DNA phosphodiesterase 1 (TDP1): qHTS in cells in presence of CPT; further: nearly all actives have a fitted effect of over 55% in size
Details: chicken DT40 Tdp1-/-;hTDP1 cells + 20 nM CPT, ATP luminescence, 48 h; activity change, negative = growth inhibition: at 46.2 µM (top of the series) unless noted
Summary of the method: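 Chicken DT40 Tdp1-/- cells complemented with human TDP1, 400 cells/well, exposed to compounds plus 20 nM camptothecin for at least 48 h at 37 C; viability read as ATP content by CellTiter-Glo luminescence.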
On the % scale 0 is the no-effect control and ±100 the full control effect; potency means the concentration at half of the fitted maximal effect; tags describe the fitted curve by direction and shape.

Row | Compound | Potency | activity change, negative = growth inhibition
1 | Cc1cc(C)c(S(=O)(=O)N2CCN(C(=O)c3ccc(-n4nc(C)c(Cl)c4C)cc3)CC2)c(C)c1 | active: 23.1 µM | –
2 | Cc1cccc(-n2c(SCC(=O)NCc3ccc4c(c3)OCO4)nc3ccccc3c2=O)c1 | inconclusive: 6.51 µM [inhibitor, single point] | –
3 | Cc1ccc(C)c(NC(=O)c2nn(C)c3c2CS(=O)(=O)c2ccccc2-3)c1 | inconclusive: 25.9 µM [inhibitor, single point] | –
4 | CC(C)(C)C1CCc2c(sc3nnn(CCOc4ccccc4)c(=O)c23)C1 (stereo not given) | inconclusive: 20.6 µM [inhibitor, single point] | –
5 | CCOc1ccccc1NC(=O)C1CCCCN1S(=O)(=O)c1ccc(F)cc1 (stereo not given) | – | inactive: -28.1%
6 | C=C[C@]1(C)C[C@@H](OC(=O)CSCCN(CC)CC)[C@]2(C)C(C)CC[C@]3(CCC(=O)[C@H]32)[C@@H](C)[C@@H]1O (stereo not given in full) | active: 2.91 µM and active: 8.2 µM | –
7 | COc1cc(C2NC(=O)NC(c3ccccc3)=C2C(C)=O)cc([N+](=O)[O-])c1O (stereo not given) | – | inactive: -4.41%
8 | CCCCn1c2c(c(=O)n(C)c1=O)C(CC(=O)OCC(=O)Nc1cccc(C(F)(F)F)c1)C(=O)N2 (stereo not given) | – | inactive: 11.4%
9 | COC(=O)c1ccc(Oc2nc(NC(C)C)nc(NC(C)C)n2)cc1 | – | inactive: 6.35%
10 | CSc1ccc(CN(C)C(=O)C(c2ccccc2)c2ccccc2)cc1 | – | inactive: -25.5%
11 | Cc1ccc(C)c(NC(=O)CN2C(=O)c3cccnc3Oc3ccc(C)cc32)c1 | inconclusive: 25.9 µM [inhibitor, single point] | –
12 | [N-]=[N+]=NCC/C=C\C1NS(=O)(=O)OCC1O (stereo not given) | inconclusive: 29.1 µM [inhibitor, single point] | –
13 | COc1cc(NC(=O)Nc2nnc([C@H]3C[C@H](O)[C@@H](CO)O3)s2)cc(OC)c1 | – | inactive: -4.49%
14 | CC1CCc2cc(F)ccc2N1C(=O)c1ccc2c(c1)OCO2 (stereo not given) | inconclusive: 29.1 µM [inhibitor, single point] | –
15 | CC1=NN(C(=O)c2csc(C)c2)C(O)(C(F)(F)F)C1 (stereo not given) | active: 0.13 µM | –
16 | O=C(Nc1ccc(N2CCCC2)cc1)c1cc([N+](=O)[O-])ccc1N1CCOCC1 | inconclusive: 25.9 µM [inhibitor, single point] | –
17 | Cc1cccc(-c2nc(CSCC(=O)NCCc3ccc(Cl)cc3)c(C)o2)c1 | inconclusive: 29.1 µM [inhibitor, single point] | –
18 | CCCn1c(C)cs/c1=N\C(=S)Nc1ccccc1 | inconclusive: 29.1 µM [inhibitor, single point] | –
19 | Cc1ccc(CNC(=O)c2ccc(-c3nc(CS(=O)c4ccccc4)c(C)o3)cc2)cc1 (stereo not given) | active: 18.4 µM | –
20 | Cc1ccc(-c2cc(C(=O)N/N=C/c3ccc(Cl)cc3)n[nH]2)o1 | inconclusive: 11.6 µM [inhibitor, partial curve, poor fit] | –
21 | COC(=O)C(NC(=O)CNS(=O)(=O)c1ccc(Br)cc1)c1ccccc1 (stereo not given) | inconclusive: 20.6 µM [inhibitor, single point] | –
22 | CCNc1nc(N)nc(Oc2ccc(OCc3ccccc3)nn2)n1 | inconclusive: 6.51 µM [inhibitor, full curve, poor fit] | –
23 | COCCn1ccc2c(OCC(=O)Nc3ccccc3F)cccc2c1=O | – | inconclusive: -32% [inhibitor]
24 | CC1Oc2ccccc2N(Cc2cccc(F)c2)C1=O (stereo not given) | – | inactive: -14.7%

Row | Compound | Potency | activity change, negative = growth inhibition
25 | O=C1N(c2ccccc2)c2ccccc2C1(Cc1ccncc1)Cc1ccncc1 | inconclusive: 750 nM [inhibitor, full curve, poor fit] and inconclusive: 920 nM [inhibitor, full curve] | –
26 | O=C(Nc1ccc(F)cc1F)C1CCN(C(=O)c2ccc(Br)cc2)CC1 | inconclusive: 29.1 µM [inhibitor, single point] | –
27 | O=C(CCCn1c(=S)[nH]c2cc3c(cc2c1=O)OCO3)N1CCN(c2ccccc2)CC1 | inconclusive: 29.1 µM [inhibitor, single point] | –
28 | O=C(NC(c1ccc(F)cc1)c1ccc2ccccc2n1)C1CCN(Cc2ccc3ccccc3n2)CC1 (stereo not given) | inconclusive: 29.1 µM [inhibitor, single point] | –
29 | COC(=O)c1cc(NC(=O)Cc2ccc(OC)cc2)cc(C(=O)OC)c1 | – | inactive: -24.7%
30 | O=C(NCC1CCCN(C(=O)c2cccnc2)C1)c1ccc(-c2ccccc2)cc1 (stereo not given) | inconclusive: 25.9 µM [inhibitor, single point] | –
31 | CCc1ccc2c(COC(=O)c3n[nH]c4ccccc34)cc(=O)oc2c1 | inconclusive: 29.1 µM [inhibitor, single point] | –
32 | [O-]c1c[n+](-c2ccc(-[n+]3cc([O-])on3)cc2)no1 | – | inconclusive: -30.5% [inhibitor]
33 | CCc1ccc2nc(SCC(=O)Nc3ccccc3N3CCOCC3)c(C#N)cc2c1 | active: 4.61 µM | –
34 | Cc1ccsc1CN(C)CC(=O)Nc1cccc(S(=O)(=O)N(C)c2ccccc2)c1 | inconclusive: 23.1 µM [inhibitor, single point] | –
35 | CCOc1ccc(/C=N/NC(=O)c2[nH]ncc2Br)c(O)c1 | active: 5.17 µM | –
36 | c1ccc(-n2ncc3c(N4CCCCC4)ncnc32)cc1 | – | inconclusive: -30.2% [inhibitor]
37 | CCOC(=O)N1CCc2c(sc3c2c(=O)n(CCc2ccccc2)c(=O)n3CC(=O)Nc2cccc(C)c2)C1 | inconclusive: 10.3 µM [inhibitor, partial curve] | –
38 | COc1cc(=O)n2c(c1C(=O)N(C)Cc1cscn1)CCN(Cc1c(C)[nH]c3ccccc13)CC2 | inconclusive: 25.9 µM [inhibitor, single point] | –
39 | COC(=O)CSC(=S)N1C(C)CCCC1C (stereo not given) | – | inactive: 6.18%
40 | Cc1ccc(C)c(N(CC(=O)NC2CCCC2)S(=O)(=O)c2ccccc2)c1 | active: 11.6 µM | –
41 | Cc1ccc(C)c(NC(=O)C(OC(=O)c2cc[n+]([O-])cc2)c2ccccc2)c1 (stereo not given) | – | inactive: 3.6%
42 | COc1cc(/C=N/Nc2ccc(Cl)c(C(=O)O)c2)ccc1OC(=O)c1ccccc1F | – | inactive: -1.58%
43 | CCOC(=O)C1(CC2CCCCO2)CCN(C(=O)Nc2ccc(C(=O)OC)cc2)CC1 (stereo not given) | inconclusive: 16.4 µM [inhibitor, partial curve, poor fit] | –
44 | CSc1ccccc1NC(=O)C1(C)CCN1C(=O)Cc1ccc(-c2ccccc2)cc1 (stereo not given) | inconclusive: 16.4 µM [inhibitor, single point] | –
45 | CCCCn1nnnc1SCC(=O)Nc1ccc2c(c1)OCO2 | – | inactive: -14.2%
46 | COCC(=O)N(CCc1ccc(OC)c(OC)c1)Cc1cc2cc(C)ccc2nc1Cl | inconclusive: 29.1 µM [inhibitor, single point] | –
47 | O=C(NCCc1cccc(F)c1)C1CCC(=O)N(C2CCCCCC2)C1 (stereo not given) | inconclusive: 0.461 µM [inhibitor, single point] | –
48 | COC(=O)CNC(=O)COC(=O)c1cc(Cl)cc(Cl)c1N | – | inactive: -3.95%

Row | Compound | Potency | activity change, negative = growth inhibition
49 | CCCC(=O)Nc1ccccc1NC(C)=O | – | inactive: 0.824%
50 | COc1cc(NC(=O)c2cc(Br)cc(C)c2OC)ccc1NC(=O)C(C)C | inconclusive: 25.9 µM [inhibitor, single point] | –
51 | O=C(CCc1nnc2n(Cc3ccccc3)c(=O)c3ccccc3n12)NCCN1CCOCC1 | inconclusive: 25.9 µM [inhibitor, partial curve] | –
52 | OCC1(CCc2ccccc2)CCN(Cc2c(F)ccc(F)c2F)CC1 | inconclusive: 29.1 µM [inhibitor, single point] | –
53 | Cc1ccc(S(=O)(=O)NN=C2C3CC4CC(C3)CC2C4)cc1 | – | inactive: 7.35%
54 | COc1ccc2nc(NC(=O)CSC3=NCCS3)sc2c1 | inconclusive: 18.4 µM [inhibitor, single point] | –
55 | CC(=O)c1c(C(C)=O)c(C)n(Cc2ccc3c(c2)OCO3)c1C | inconclusive: 29.1 µM [inhibitor, single point] | –
56 | O=S1(=O)C=C(SCc2ccc(Cl)c(Cl)c2)Nc2ccccc21 | active: 23.1 µM | –
57 | O=C(N/N=C/c1c(-c2ccccc2)[nH]c2ccccc12)c1cccnc1 | active: 6.51 µM | –
58 | CN1C(=O)C(c2cn(C)c3ccccc23)(c2cn(C)c3ccccc23)c2cc(F)ccc21 | inconclusive: 29.1 µM [inhibitor, single point] | –
59 | CCOC(=O)c1ccc(NC2c3ccccc3C(=O)N2c2ccc(C)cn2)cc1 (stereo not given) | inconclusive: 29.1 µM [inhibitor, single point] | –
60 | Cc1ccc(C(C)C)c(OCCN2CCc3ccccc3C2)c1 | inconclusive: 29.1 µM [inhibitor, single point] | –
61 | CCn1nc(C)c(CCN(C)C(=O)Nc2cc(C)cc(C)c2)c1C | inconclusive: 23.1 µM [inhibitor, single point] | –
62 | C=CCOc1ccc(C(=O)Nc2ccc3c(c2)n(C)c(=O)n3C)cc1 | – | inactive: -23.5%
63 | S=c1[nH]nc(CCc2ccc(Cl)cc2)o1 | – | inactive: -23.6%
64 | C[C@H](CO)N1C[C@H](C)[C@@H](CN(C)C(=O)c2ccncc2)OCc2cnnn2CCCC1=O | – | inactive: -4.55%
65 | CC(Sc1nc(N2CCOCC2)c2c(c1C#N)CC(C)(C)OC2)C(=O)O (stereo not given) | – | inactive: 28.4%
66 | C=CCSC1=C(C#N)C(c2ccccc2C)CC(=O)N1 (stereo not given) | – | inactive: -8.72%
67 | COc1ccc(-n2c(=O)c3c(c4cc(OC)ccc4n3C)n(Cc3ccc(F)cc3Cl)c2=O)cc1 | – | inactive: -13.5%
68 | COc1ccc2cc(CCNS(=O)(=O)c3c(C)cc(C)cc3C)c(=O)[nH]c2c1 | inconclusive: 6.51 µM [inhibitor, full curve, poor fit] | –
69 | CCc1ccc(CNC(=O)Cn2c(-c3cccs3)cc3cc(F)ccc32)cc1 | inconclusive: 18.4 µM [inhibitor, single point] | –
70 | COc1ccccc1NC(=O)c1c(NC(=O)Cc2ccccc2)sc2c1CCC(C(C)(C)C)C2 (stereo not given) | – | inactive: -3.5%
